PubChem BioAssay AID212 (DTP/NCI, 2004)
Inconclusive results are not listed. Some entries of the source have several records that differ or are many. This list holds those alone. There may be further records. The records of an entry repeat one measurement in other runs, samples, wells, individuals or studies.

Test system: BDF1 mice, colon carcinoma 38 sc, T/C %
Assay: NCI In Vivo Anticancer Drug Screen. Data for tumor model Colon Carcinoma 38 (subcutaneous) in B6D2F1 (BDF1) mice
Conditions: endpoint: median tumor weight (est.), higher = larger tumour
Experimental: The antitumor activity of compounds was measured in mice bearing transplantable tumors. Survival or tumor size were measured and the results are expressed as the measurement made in the treated group (T) divided by the measurement made in the vehicle treated control group (C). The tumor model used in this assay is Colon Carcinoma 38 (subcutaneous) in B6D2F1 (BDF1) mice

[1] = dose: 100.0 mg/kg/injection, schedule: Q07DX002 (ip), vehicle: saline with Tween-80
[2] = dose: 12.5 mg/kg/injection, schedule: Q07DX003 (ip), vehicle: Klucel (hydroxypropylcellulose) (HPC)
[3] = dose: 100.0 mg/kg/injection, schedule: Q07DX002 (ip), vehicle: saline
[4] = dose: 50.0 mg/kg/injection, schedule: Q07DX002 (ip), vehicle: Klucel (hydroxypropylcellulose) (HPC)
[5] = dose: 50.0 mg/kg/injection, schedule: Q07DX002 (ip), vehicle: saline
[6] = dose: 200.0 mg/kg/injection, schedule: Q07DX002 (ip), vehicle: saline
[7] = dose: 400.0 mg/kg/injection, schedule: Q07DX002 (ip), vehicle: saline
[8] = dose: 12.5 mg/kg/injection, schedule: Q07DX002 (ip), vehicle: saline
[9] = dose: 25.0 mg/kg/injection, schedule: Q07DX002 (ip), vehicle: Klucel (hydroxypropylcellulose) (HPC)
[10] = dose: 200.0 mg/kg/injection, schedule: Q07DX002 (ip), vehicle: Klucel (hydroxypropylcellulose) (HPC)
[11] = dose: 25.0 mg/kg/injection, schedule: Q07DX003 (ip), vehicle: Klucel (hydroxypropylcellulose) (HPC)
[12] = dose: 50.0 mg/kg/injection, schedule: Q07DX002 (ip), vehicle: saline with Tween-80
[13] = dose: 50.0 mg/kg/injection, schedule: Q07DX002 (ip), vehicle: other

CC1OC(=O)C(C(C)C)NC(=O)C(C(C)C)OC(=O)C(C(C)C)NC(=O)C(C)OC(=O)C(C(C)C)NC(=O)C(C(C)C)OC(=O)C(C(C)C)NC(=O)C(C)OC(=O)C(C(C)C)NC(=O)C(C(C)C)OC(=O)C(C(C)C)NC1=O (stereo not drawn)
T/C (dose: 1.25 mg/kg/injection, schedule: Q07DX003 (ip), vehicle: saline with Tween-80): 93 % of control and 176 % of control | T/C (dose: 10.0 mg/kg/injection, schedule: Q07DX003 (ip), vehicle: saline with Tween-80): 40 % of control and 84 % of control | T/C (dose: 20.0 mg/kg/injection, schedule: Q07DX003 (ip), vehicle: saline with Tween-80): 25 % of control and 164 % of control

CNc1cccnc1/C=N/NC(N)=S
T/C [1]: 66 % of control and 95 % of control

[Cl][Pt+2][Cl].[NH-]C1CCC1.[NH2-]
T/C (dose: 6.0 mg/kg/injection, schedule: Q07DX002 (ip), vehicle: saline): 52 % of control and 100 % of control

CC(CN1CC(=O)NC(=O)C1)N1CC(=O)NC(=O)C1 (stereo not drawn)
T/C [2]: 60 % of control and 112 % of control | T/C (dose: 100.0 mg/kg/injection, schedule: Q07DX003 (ip), vehicle: Klucel (hydroxypropylcellulose) (HPC)): 47 % of control and 78 % of control

COC(=O)c1ccoc1
T/C [3]: 45 % of control and 81 % of control

Nc1nc(-c2ccccc2)c(Br)c(=O)[nH]1
T/C (dose: 400.0 mg/kg/injection, schedule: Q07DX002 (ip), vehicle: saline with Tween-80): 44 % of control and 100 % of control | T/C (dose: 800.0 mg/kg/injection, schedule: Q07DX002 (ip), vehicle: saline with Tween-80): 32 % of control and 84 % of control

CCOC(=O)Nc1cc2c(c(N)n1)N=C(CN(C)c1ccccc1)CN2
T/C (dose: 12.5 mg/kg/injection, schedule: Q07DX002 (ip), vehicle: Klucel (hydroxypropylcellulose) (HPC)): 45 % of control and 79 % of control

CN(C)N=Nc1ccccc1
T/C (dose: 6.25 mg/kg/injection, schedule: Q07DX002 (ip), vehicle: Klucel (hydroxypropylcellulose) (HPC)): 57 % of control and 91 % of control | T/C [4]: 23 % of control and 54 % of control

c1ccc2c(NCCCCCCNc3c4ccccc4nc4ccccc34)c3ccccc3nc2c1
T/C (dose: 10.0 mg/kg/injection, schedule: Q07DX002 (ip), vehicle: Klucel (hydroxypropylcellulose) (HPC)): 88 % of control and 114 % of control

CCCC(=O)Nc1ncnc2c1ncn2C1OC2COP(=O)(O)OC2C1OC(=O)CCC (stereo not drawn)
T/C [5]: 63 % of control, 90 % of control, 96 % of control | T/C [6]: 67 % of control, 157 % of control, 179 % of control | T/C [7]: 64 % of control and 120 % of control

O=c1cnn(C2OC(CO)C(O)C2O)c(=O)[nH]1 (stereo not drawn)
T/C [3]: 57 % of control and 110 % of control | T/C [6]: 11 % of control, 81 % of control, 85 % of control | T/C [7]: 61 % of control, 66 % of control, 107 % of control | T/C (dose: 800.0 mg/kg/injection, schedule: Q07DX002 (ip), vehicle: saline): 15 % of control, 85 % of control, 94 % of control | T/C (dose: 1600.0 mg/kg/injection, schedule: Q07DX002 (ip), vehicle: saline): 59 % of control, 103 % of control, 157 % of control | T/C (dose: 3200.0 mg/kg/injection, schedule: Q07DX002 (ip), vehicle: saline): 55 % of control, 71 % of control, 95 % of control

CCN(CC)CC[n+]1ccc2c(C)c3[nH]c4ccc(O)cc4c3c(C)c2c1
T/C (dose: 6.25 mg/kg/injection, schedule: Q07DX002 (ip), vehicle: saline): 27 % of control and 92 % of control | T/C [8]: 53 % of control and 91 % of control

COc1cc2cc3c4cc(OC)c(OC)cc4cc[n+]3c(C)c2cc1OC (tested in a mixture with another compound)
T/C (dose: 200.0 mg/kg/injection, schedule: Q07DX003 (ip), vehicle: saline): 41 % of control and 74 % of control

CCCCCC[C@H]([C@H](C)O)n1cnc2c(N)ncnc21
T/C [9]: 83 % of control and 112 % of control | T/C [4]: 85 % of control and 121 % of control | T/C [10]: 57 % of control and 120 % of control

Cc1c2ccncc2c(C)c2c1[nH]c1ccccc12
T/C [2]: 73 % of control and 117 % of control | T/C [9]: 55 % of control and 115 % of control | T/C [11]: 48 % of control and 90 % of control | T/C (dose: 40.0 mg/kg/injection, schedule: Q07DX002 (ip), vehicle: distilled water + Tween-80): 37 % of control and 94 % of control | T/C [4]: 54 % of control and 96 % of control

C=C(NC(=O)C(=C)NC(=O)c1csc(C2=NC3c4csc(n4)C4NC(=O)c5csc(n5)C(C(C)(O)C(C)O)NC(=O)C5CSC(=N5)/C(=C/C)NC(=O)C(C(C)O)NC(=O)c5csc(n5)C3(CC2)NC(=O)C(C)NC(=O)C(=C)NC(=O)C(C)NC(=O)C(C(C)CC)NC2C=Cc3c(C(C)O)cc(nc3C2O)C(=O)OC4C)n1)C(N)=O (stereo not drawn)
T/C [11]: 46 % of control and 87 % of control | T/C (dose: 50.0 mg/kg/injection, schedule: Q07DX003 (ip), vehicle: Klucel (hydroxypropylcellulose) (HPC)): 42 % of control and 73 % of control

O=C(CCBr)N1CCN(C(=O)CCBr)CC1
T/C (dose: 160.0 mg/kg/injection, schedule: Q07DX002 (ip), vehicle: saline with Tween-80): 58 % of control and 93 % of control | T/C (dose: 320.0 mg/kg/injection, schedule: Q07DX002 (ip), vehicle: saline with Tween-80): 56 % of control and 121 % of control

CCOC(=O)C(N)CSC(=O)NC (stereo not drawn)
T/C [8]: 77 % of control and 183 % of control | T/C (dose: 25.0 mg/kg/injection, schedule: Q07DX002 (ip), vehicle: saline): 81 % of control and 118 % of control | T/C [5]: 67 % of control and 123 % of control | T/C [3]: 41 % of control and 171 % of control | T/C [6]: 74 % of control and 173 % of control | T/C [7]: 124 % of control and 170 % of control

COc1cccc2c1C(=O)c1c(O)c3c(c(O)c1C2=O)CC(O)(C(=O)CO)CC3OC1CC(N)C(O)C(C)O1 (stereo not drawn)
T/C [8]: 66 % of control and 121 % of control | T/C [5]: 51 % of control and 124 % of control | T/C [3]: 16 % of control and 53 % of control

CC(C)(C)N1CC1CNC(=O)C(=O)NCC1CN1C(C)(C)C (stereo not drawn)
T/C (dose: 1.56 mg/kg/injection, schedule: Q07DX002 (ip), vehicle: saline with Tween-80): 73 % of control and 109 % of control | T/C (dose: 6.25 mg/kg/injection, schedule: Q07DX002 (ip), vehicle: saline with Tween-80): 84 % of control, 94 % of control, 175 % of control | T/C [12]: 10 % of control, 17 % of control, 65 % of control

O=S(=O)(N=N/C=C1\C=CC=CN1O)c1cccs1
T/C (dose: 200.0 mg/kg/injection, schedule: Q07DX002 (ip), vehicle: saline with Tween-80): 57 % of control and 95 % of control

C1CC[N-]CC1.C1CC[N-]CC1.C1CC[N-]CC1.[Cl][Rh]([Cl])[Cl]
T/C [8]: 75 % of control and 105 % of control | T/C [5]: 85 % of control and 175 % of control

Nc1ccc2c(c1)CN1C(=O)c3ccccc3C1=N2
T/C (dose: 25.0 mg/kg/injection, schedule: Q07DX002 (ip), vehicle: other): 51 % of control and 105 % of control | T/C [13]: 58 % of control and 100 % of control

CCCCNc1ccc2nnc(C)n2n1
T/C [13]: 78 % of control and 112 % of control | T/C (dose: 100.0 mg/kg/injection, schedule: Q07DX002 (ip), vehicle: other): 82 % of control and 154 % of control

COC(=O)Nc1ccc(Cc2ccc(NC(=O)OC)cc2)cc1
T/C (dose: 12.5 mg/kg/injection, schedule: Q07DX002 (ip), vehicle: saline with Tween-80): 76 % of control, 99 % of control, 103 % of control | T/C (dose: 25.0 mg/kg/injection, schedule: Q07DX002 (ip), vehicle: saline with Tween-80): 78 % of control and 122 % of control | T/C [12]: 43 % of control, 108 % of control, 111 % of control | T/C [1]: 58 % of control, 93 % of control, 117 % of control

CCN(C)N=Nc1ccc(C(N)=O)cc1
T/C [10]: 22 % of control, 57 % of control, 74 % of control

[N-]=[N+]=CC(=O)CCC(N)C(=O)O (stereo not drawn)
T/C (dose: 3.12 mg/kg/injection, schedule: Q07DX003 (ip), vehicle: saline): 36 % of control, 90 % of control, 94 % of control
